{"source": "paper PMC12136788", "binders": {"B1": {"name": "chr17:45757422:45757423:+_ENSG00000108424_ENST00000290158|hu_mus|FALSE|FALSE (ssRNA)", "RNA": "GGGAGUUCUACAGUCCGACGAUCUACAUCCUUCCCGAAGGCUGUACACAAGUCCCCUAUCAGACCAGCAGCACAGGCUACCACUCCGUCCGUAUGAUCCUCAUCUCCAGCAAUGUGAUCAAUAAAAGACAAAAUAAAUUCUACCAACAGAGGAUUGAGCAUCA"}, "B2": {"name": "chr2:121837063:121837064:+_ENSMUSG00000033411_ENSMUST00000110578|mus_hu|FALSE|FALSE (ssRNA)", "RNA": "GGGAGUUCUACAGUCCGACGAUCAUUAGUCAUUCAUAUAUUCUUAUCUACCCAGUCUCUUGAUUUUUGAAAAGAUUUCACCUACAGUAGAAUAUUACAGAAACAAAAUAUAAAUGCAUGUCUUUCUAAAUGAAACUUACAUAGCAACAGAGGAUUGAGCAUCA"}, "B3": {"name": "3573380_3573500_6314_CDS_ENSMUSG00000033799_ENSMUST00000096069|mouse|control|control (ssRNA)", "RNA": "GGGAGUUCUACAGUCCGACGAUCGUACUCUAGGUCUAAUGUAUGCUGAGUAAGGUCAUCUGUCACAUGCCAGGUACUAGUCCAGGAGCUGAGAAGGUUGCAGUUUGCACUCAAAUUCCGAUGCCUCUUCAGGCUAUGCAACCUCAACAGAGGAUUGAGCAUCA"}, "B4": {"name": "104850710_104852920_1218_CDS_ENSG00000076685_ENST00000404739|human|control|control (ssRNA)", "RNA": "GGGAGUUCUACAGUCCGACGAUCGGAACUGAUGUCUGGACGCUCAUUGCUACUGCUGUCAAGAUGCUUGUAGAGUUCAGCCAAGAAAAUAUCCAAGCUCUGAAGUUCUUCGAAAAGUGAACUCUUGUCAGUCCAGACAUGUAGCAACAGAGGAUUGAGCAUCA"}, "B5": {"name": "chr7:139256351:139256352:-_ENSG00000064393_ENST00000406875|hu_hu|FALSE|FALSE (ssRNA)", "RNA": "GGGAGUUCUACAGUCCGACGAUCUCUUUCGAGAUCCACGGACUCUCUCCUAGCUCCUGCUGGCUUCCCUGGCAUCCUUCCGCUAGCAAACAGCCCAGGAAAGACAACGGGCAUUAACAUUUUAAAAAGAAAAAGAAAAAGAAACAACAGAGGAUUGAGCAUCA"}, "B6": {"name": "chr3:100432656:100432657:+_ENSG00000114354_ENST00000490574|hu_hu|FALSE|FALSE (ssRNA)", "RNA": "GGGAGUUCUACAGUCCGACGAUCUGUUACUUCAUCAUUACUCAGAAGUUUUCCUCUGAAAACUCGUUGCAUCAUUAGCACUAAUUCAUCAUAAGUAAUAUCUUCAUUAUGAAUAGGAAUUCGCCGAAUAUCCUCCCCAAGUUGCAACAGAGGAUUGAGCAUCA"}, "B7": {"name": "chr3:45748292:45748293:+_ENSG00000211456_ENST00000389061|hu_hu|FALSE|FALSE (ssRNA)", "RNA": "GGGAGUUCUACAGUCCGACGAUCUGCUUUCCAGACUACAUGACUGAAAAAUUCACCUACUUUUAUCUUUUUGGUAAUGACUAUAAGAUAAUUACCUGCCACCAGAUGGAUUGUGCCCAGUAUACCAAAUAUUGGUCUUGUGACCAACAGAGGAUUGAGCAUCA"}, "B8": {"name": "chr2:42509997:42509998:+_ENSG00000143924_ENST00000318522|hu_mus|hu_hu_hu_mus_True|1_88 (ssRNA)", "RNA": "GGGAGUUCUACAGUCCGACGAUCUCGCUGAGUCCUCUCCUCAUAAUUAAAUAGUACUACCACUGAGGCGAUAAAAUAAACUAUCUCCCCUGUGGGAAGCAGGUAUACAUUCGCUCUACAGUCCUUUCCUCGAUAACCAUAUGCCAACAGAGGAUUGAGCAUCA"}, "B9": {"name": "chr10:1038518:1038519:+_ENSG00000107937_ENST00000545048|hu_hu|hu_hu_hu_mus_False|1_108 (ssRNA)", "RNA": "GGGAGUUCUACAGUCCGACGAUCCAGUCUAUCAUGGUAAUUCUGUUGAGUAAAUUUGACUUUUCUCAUAUAAAAAUGUCGAAUCCGAUGAAUUUGAUAAUGUUUAUGAAUAACCGUUGGAGUCUUUCGUUGAGUCUUCGACAACAACAGAGGAUUGAGCAUCA"}, "B10": {"name": "52102614_52102734_3300_3pUTR_ENSG00000128872_ENST00000249700|human|control|control (ssRNA)", "RNA": "GGGAGUUCUACAGUCCGACGAUCUUUCUUACAUAUUGCUAAUUUCUGUGGUGUAAAUAUUUCUACCAUGGCCAAUUUCAAGCCACUGUAGUAACAAGAAGGUAGUGAACAUGGAGUUGAGAGGAUACGUUCAGUAGCAUACUGCAACAGAGGAUUGAGCAUCA"}, "B11": {"name": "chr3:101264221:101264222:+_ENSMUSG00000042035_ENSMUST00000043983|mus_mus|motif|central (ssRNA)", "RNA": "GGGAGUUCUACAGUCCGACGAUCAGAUUGGCGAGUAGAUGCGGCACCUGGAGCUACGCACUAAGUUACCAAAACCAAAAACGGGGAACCUAGGAUGUUGGCAUCAUGACACCUGGGUGUGAUCAGCUAACCAGGGCUGCCGCCCAACAGAGGAUUGAGCAUCA"}, "B12": {"name": "chr7:141441981:141441982:+_ENSG00000106028_ENST00000265304|hu_mus|hu_hu_hu_mus_False|1_28 (ssRNA)", "RNA": "GGGAGUUCUACAGUCCGACGAUCCUCAUGUCUUACAAACUGACGAAAUACCUGUAACACAGGUCUUCGAAACAUGGCUUCUGUUUUUCUUACAACCUAAUCUUUAGUUAGGCUUUUAAGGAAAGAAAGAAAAGAGAAGCCCAGCAACAGAGGAUUGAGCAUCA"}, "B13": {"name": "131209633_131209753_140_3pUTR_ENSMUSG00000025809_ENSMUST00000090006|mouse|control|control (ssRNA)", "RNA": "GGGAGUUCUACAGUCCGACGAUCUCGGGCCGGCGUCGGCGGGCCUCGGCUUCUCGGUUGGUCUCGGGUGGCGUCGGCGGGCCUCGGCCGCUCCGCGGGUCUGGCGGCUCUUCAGCGAGUGGGCGGAGACUCGGCCCGCCUGUCCAACAGAGGAUUGAGCAUCA"}, "B14": {"name": "chr1:220315150:220315151:+_ENSG00000067704_ENST00000302637|hu_hu|motif|central (ssRNA)", "RNA": "GGGAGUUCUACAGUCCGACGAUCAGCCAGGUGAGGAAGAAUGGGAGCAAAAGAACGAACUAUUACAUCCAAAAUUUCAACGGAUGCAGUCUGACAAGAGCGUCGUUUGGGGUCAUUUUCCUUUUCACAAUAGAGCCUAUCUUUCAACAGAGGAUUGAGCAUCA"}, "B15": {"name": "chr12:84935825:84935826:-_ENSMUSG00000042628_ENSMUST00000048319|mus_hu|FALSE|FALSE (ssRNA)", "RNA": "GGGAGUUCUACAGUCCGACGAUCUCCCGCUGCAAGCGUAACUUUCCUGGCACAUCAGCCCCGGAUUCAGGCCCUUCUCUGCUGGGGAAGUCUGGGCACUCAUACUCACGCUGGUAAGGAAACACACCCACCAUAUAAUAGUCACAACAGAGGAUUGAGCAUCA"}, "B16": {"name": "45071528_45071648_1140_3pUTR_ENSMUSG00000048232_ENSMUST00000052236|mouse|control|control (ssRNA)", "RNA": "GGGAGUUCUACAGUCCGACGAUCUCCUCCCCGCUGGGGCUCAGGCCACCGUCACUGCUGUCUGGAGUCUGGGCCACUCUCUCCCCAUCGCUGCCCACCUCUGCCUCCUUGGAGCCUGGCUUGGGAGAGCUACAGACUGGGCUUCAACAGAGGAUUGAGCAUCA"}, "B17": {"name": "chr5:145543945:145543946:-_ENSG00000133706_ENST00000545646|hu_hu|hu_hu_hu_mus_True|58_58 (ssRNA)", "RNA": "GGGAGUUCUACAGUCCGACGAUCCUGAACGGCCAGUGGUGGGAAAUAAUCAAGCCAGUGCUCUGCUUCAGAAAACUUUACUAUCUCGUCAUCAGAGAGCCCAAGGGAUUUCAUAAUGUCCCACUGGUACUUAGAAGAUCCUGCCAACAGAGGAUUGAGCAUCA"}, "B18": {"name": "chr16:94664741:94664742:+_ENSMUSG00000040785_ENSMUST00000117648|mus_hu|mus_mus_mus_hu_False|58_108 (ssRNA)", "RNA": "GGGAGUUCUACAGUCCGACGAUCUGGCAUGGAUCUUGGUAGCUGAUAUUCAGGAGAAAGGCUGGCCAAGGGUGUAUAAAUGCUAGUGUACUGGGGCAAACCUGGUAACACGUUUAUGUAUGCUGGCGGUGUCUGGGUGAUAUCCAACAGAGGAUUGAGCAUCA"}, "B19": {"name": "chr6:114281168:114281169:-_ENSG00000196591_ENST00000368632|hu_hu|hu_hu_hu_mus_True|38_68 (ssRNA)", "RNA": "GGGAGUUCUACAGUCCGACGAUCUUCCAUUUUUCGGUAUAAACCAUAAUUUAGCAGCAAGUUAUGAGUCAUGCGGAUUCUAUGAGGCUUCAUGGGAUGACCCUGUCCAUAAUAAUAAUUGCCAAUAUCACCAUCAUAGUAGUACAACAGAGGAUUGAGCAUCA"}, "B20": {"name": "chr3:9412954:9412955:+_ENSG00000134077_ENST00000452837|hu_mus|hu_hu_hu_mus_False|28_108 (ssRNA)", "RNA": "GGGAGUUCUACAGUCCGACGAUCGGUUGAUACAUCCUCUUUGAUGGCUGGAUUUUCAUAAUAGUCCAAGAUAUGUGAAUCUGAAGUGCUGCUGGCAUGCUUUUUCUUAACAUUUCUCUCAUCUGCUUUGUCUCCUUGUCCACACAACAGAGGAUUGAGCAUCA"}, "B21": {"name": "chr3:103732867:103732868:+_ENSMUSG00000044098_ENSMUST00000106806|mus_mus|FALSE|FALSE (ssRNA)", "RNA": "GGGAGUUCUACAGUCCGACGAUCAAAAUUAAAAGCAAAGUAGUCCAAGAAGUCUGGGAGAUAAGCGGCCGCUCCAUGCACUAUUGCUAACGCAUAGUACGCAGCGUUUUUCUCAUUUUCACUGAAUGUCAAAGCAAGAAACUCCAACAGAGGAUUGAGCAUCA"}, "B22": {"name": "chr1:244855233:244855234:+_ENSG00000121644_ENST00000302550|hu_mus|hu_hu_hu_mus_True|88_108 (ssRNA)", "RNA": "GGGAGUUCUACAGUCCGACGAUCCAUUAAAUGAUAAGCGUUGCCCUUGUAUUCUUUCCCCAGUUCUUCUACAAUUUUCUCUAUAUCAUCUUCUAGAAAGUCCGUACUUCCUAGAACAACAGCUUCUUUAAAUUUAAAUGUUUCCAACAGAGGAUUGAGCAUCA"}}, "note": "The other results are listed elsewhere or left out."}
{"biological_target": "T1, UNK ZnF1-3 (human, UniProt Q9C0B0 31-174)", "T1 sequence": "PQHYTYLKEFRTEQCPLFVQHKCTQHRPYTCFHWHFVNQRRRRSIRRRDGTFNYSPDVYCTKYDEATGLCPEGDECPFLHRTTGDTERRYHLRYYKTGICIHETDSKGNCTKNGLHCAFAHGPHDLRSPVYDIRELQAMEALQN", "assay": "nsRBNS (natural sequence RNA bind-n-seq); RBNS binding buffer (assumed for nsRBNS): 25 mM Tris pH 7.5, 150 mM KCl, 3 mM MgCl2, 0.01% Triton X-100, 500 ug/ml BSA, 20 U/ml SUPERase-In, 4 C; UNK is unkempt and MSI1 is Musashi-1; names of the RNAs are library labels; protein concentration not given here; high values mean tight binding", "units": {"binding signal": "enrichment R"}}
{"binder": "B1", "binding signal": 1.56}
{"binder": "B2", "binding signal": 0.826}
{"binder": "B3", "binding signal": 0.764}
{"binder": "B4", "binding signal": 0.921}
{"binder": "B5", "binding signal": 1.86}
{"binder": "B6", "binding signal": 0.418}
{"binder": "B7", "binding signal": 2.32}
{"binder": "B8", "binding signal": 1.48}
{"binder": "B9", "binding signal": 0.553}
{"binder": "B10", "binding signal": 0.66}
{"binder": "B11", "binding signal": 1.52}
{"binder": "B12", "binding signal": 0.455}
{"binder": "B13", "binding signal": 0.347}
{"binder": "B14", "binding signal": 2.51}
{"binder": "B15", "binding signal": 1.34}
{"binder": "B16", "binding signal": 0.962}
{"binder": "B17", "binding signal": 1.22}
{"binder": "B18", "binding signal": 1.04}
{"binder": "B19", "binding signal": 1.1}
{"binder": "B20", "binding signal": 0.653}
{"binder": "B21", "binding signal": 0.759}
{"binder": "B22", "binding signal": 1.14}
